Measured values: PMC4336329 (PLoS ONE, 2015)
The whole screen tested about 310,000 compounds, of which about 14,000 (4.5%) showed an effect of 50% or more. The effect is printed as a negative number. The list shows a part of the results.

target: human ether-à-go-go-related gene (hERG) potassium channel (human, UniProt Q12809); test: primary screen, population patch clamp on CHO cells stably expressing hERG
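Also: peak tail current of the secondary pulse compared with the same well before compound.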

Chain of human ether-à-go-go-related gene (hERG) potassium channel (Q12809 whole entry, looked up): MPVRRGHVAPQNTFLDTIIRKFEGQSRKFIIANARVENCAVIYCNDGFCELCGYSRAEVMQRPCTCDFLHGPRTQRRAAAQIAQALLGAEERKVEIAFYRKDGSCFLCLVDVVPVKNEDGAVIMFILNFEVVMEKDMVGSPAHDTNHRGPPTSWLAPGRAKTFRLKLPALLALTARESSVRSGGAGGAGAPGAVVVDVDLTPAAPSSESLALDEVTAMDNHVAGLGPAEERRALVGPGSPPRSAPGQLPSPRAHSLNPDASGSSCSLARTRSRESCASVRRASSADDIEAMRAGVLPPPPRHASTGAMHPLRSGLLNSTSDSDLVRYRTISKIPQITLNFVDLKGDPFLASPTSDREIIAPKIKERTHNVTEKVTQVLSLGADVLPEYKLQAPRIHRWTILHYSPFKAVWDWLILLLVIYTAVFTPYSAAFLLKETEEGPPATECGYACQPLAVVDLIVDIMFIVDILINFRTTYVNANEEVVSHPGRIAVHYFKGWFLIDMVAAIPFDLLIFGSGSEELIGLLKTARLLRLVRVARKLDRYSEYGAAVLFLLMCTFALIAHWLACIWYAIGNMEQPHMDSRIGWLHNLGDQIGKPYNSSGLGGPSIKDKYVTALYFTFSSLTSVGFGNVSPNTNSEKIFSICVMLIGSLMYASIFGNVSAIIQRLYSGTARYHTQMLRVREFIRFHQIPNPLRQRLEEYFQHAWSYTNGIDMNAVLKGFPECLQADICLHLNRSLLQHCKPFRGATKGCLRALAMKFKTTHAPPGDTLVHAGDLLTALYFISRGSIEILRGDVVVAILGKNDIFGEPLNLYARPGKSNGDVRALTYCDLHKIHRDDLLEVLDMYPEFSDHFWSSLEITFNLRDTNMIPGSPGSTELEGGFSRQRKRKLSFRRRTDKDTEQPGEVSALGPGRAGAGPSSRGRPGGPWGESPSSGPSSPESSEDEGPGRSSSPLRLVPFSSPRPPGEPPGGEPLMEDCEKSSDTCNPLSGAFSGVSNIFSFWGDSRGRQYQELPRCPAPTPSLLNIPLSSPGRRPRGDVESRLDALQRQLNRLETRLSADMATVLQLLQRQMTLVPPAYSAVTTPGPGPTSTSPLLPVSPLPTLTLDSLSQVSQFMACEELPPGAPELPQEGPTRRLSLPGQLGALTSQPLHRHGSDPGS

Structure (SMILES) | hERG current change (%, negative = inhibition) at 10uM [%]
Cc1ccc(C(C(=O)NCc2ccco2)N(Cc2ccco2)C(=O)CNC(=O)c2ccco2)cc1 (centres unmarked) | -7.59
OCCC1CN(C2CCSCC2)CCN1C1CCCC1 (centres unmarked) | 3.76
Cc1cccc(C)c1NC(=O)CSc1nc2[nH]c(=O)cc(O)c2s1 | -4.15
Cc1cc(C)[n+]2[nH]c(N)c(N=Nc3ccccc3)c2n1.[Cl-] | -19.6
CC(=O)c1cccc(NC(=O)CCS(=O)(=O)c2cc3c(cc2C)NC(=O)CO3)c1 | 1.62
CCN(C(=O)CCN1C(=O)/C(=C/c2ccccc2)SC1=S)C1CCS(=O)(=O)C1 (centres unmarked) | -13.3
CCOC(=O)C(=CNc1ccc(O)c(C(=O)OC)c1)C(=O)OCC | 6.07
C=CCN1/C(=C(\C#N)C2=NS(=O)(=O)c3ccccc32)N(C)c2ccccc21 | -23.2
COc1ccc(CCNC(=O)CN2C(=O)C(=O)N(C3CCCC3)C2=O)cc1OC | 15.1
CCC(=O)Nc1ccc2c(c1)N(C(C)=O)c1ccccc1CC2 | 16.1
C[C@H](NC(=O)C1CC(=O)N(c2ccc3c(c2)OCCO3)C1)C(=O)N1CCCCC1 (some centres unmarked) | 14
CC(C)(C)c1nc(NCC2CCCO2)c2nnn(Cc3ccccc3)c2n1 (centres unmarked) | 14.5
CN(c1ccc(OCC(=O)OCC(=O)Nc2ccc(Br)cc2)cc1)S(=O)(=O)c1cccs1 | -0.388
CN1CCN(C(=S)NC(=O)c2ccccc2Cl)CC1 | 17.9
CSc1cccc(N2CC(C(=O)N(CC(C)C)c3c(N)n(Cc4ccccc4)c(=O)[nH]c3=O)CC2=O)c1 (centres unmarked) | -12.6
CCCSc1nsc(NC(=O)CC)n1 | -30.5
CCOC(=O)COc1c(-c2ccc(OC)cc2)oc2ccccc2c1=O | 3.73
Cc1ccccc1N(CC(=O)NC(C)(C)C)C(=O)CCC(=O)Nc1nccs1 | 1.09
Cc1ccccc1OCC(=O)Nc1ccc([N+](=O)[O-])cc1 | 4.97
Cc1cc(C)nc(NC2=NCC(=O)N2CCc2c[nH]c3ccccc23)n1 | -2.13
O=C(Nc1cc(NC(=O)c2ccccc2F)ccc1Cl)c1ccccc1 | 15.4
CC(C)C(C(=O)O)N1C(=O)/C(=C/c2cccn2C)SC1=S (centres unmarked) | -0.129
O=C(NCC1CCCN(C(=O)c2cscn2)C1)c1ccc(-c2ccccc2)cc1 (centres unmarked) | -15.1
CC1CCCC(C)N1CCNC(=O)C1CCN(S(=O)(=O)N2CCCCC2)CC1 (centres unmarked) | -12.2
Cn1c(C(=O)O)cnc1Sc1ncc(C(F)(F)F)cc1Cl | 18.9
Cc1ccccc1OCCC(=O)OCC(=O)N1c2ccccc2NC(=O)C1(C)C | -3.06
C[C@@H]1O[C@@H](O[C@@H]2C(=O)c3c(O)cc(O)cc3O[C@H]2c2ccc(O)c(O)c2)[C@H](O)[C@H](O)[C@H]1O | 16.3

Structure (SMILES) | hERG current change (%, negative = inhibition) at 10uM [%]
Cc1cccc(CN2CCCC(C(=O)N3CCc4ccccc4C3)C2)c1.O=C(O)C(=O)O (centres unmarked) | -51.3
CSC(=S)NCc1cccnc1 | 18.5
Cn1c(=O)oc2cc(S(=O)(=O)N3CCC4(CC3)OCCO4)ccc21 | 7.55
CCc1nc2nc(C)c(NS(=O)(=O)c3ccc(F)cc3)c(=O)n2[nH]1 | 22.9
CCn1c(SCC(=O)Nc2ccc3c(c2)OCCO3)nc2c(c1=O)SC(C)C2 (centres unmarked) | -4.64
CC(=O)Nn1c(-c2ccccc2)cc2ccccc21 | 3.97
COc1ccc(C(=O)C23CC4CC(C2)CC(C(=O)c2ccc(OC)cc2)(C4)C3)cc1 | -17.9
CC(=O)Nc1ccc(-c2csc(NC(=O)C3CCN(S(=O)(=O)c4cccs4)CC3)n2)cc1 | -2.9
COC(=O)c1cc(S(=O)(=O)Nc2cccc(-c3cnco3)c2)oc1C | 9.51
CCOc1cccc(=O)c2c(C)n(Cc3ccco3)c(C)c12 | -11.5
CN1CCN(c2ccccc2NC(=O)COc2ccc(C3CCCCC3)cc2)CC1 | 16.8
COc1cccc(NC(=O)C2CCC(CNS(=O)(=O)c3cccc4cccnc34)CC2)c1 (centres unmarked) | 9.58
CC(=O)Nc1ccc2nc(-c3ccncc3)[nH]c2c1 | 13.6
O=C(NCc1ccccn1)c1ccc(/C=N/O)nc1 | 7.51
CCOc1ccc(CN2CCN(Cc3cccc4nonc34)CC2CCO)cc1 (centres unmarked) | -77.1
CCN(CC)CCn1c(SCC(=O)NCCC2=CCCCC2)nc2c(sc3ccccc32)c1=O | 35.5
Cc1ccc(-n2c([S-])c(C(=O)Nc3ccc(OC(F)F)cc3)[n+]3ccc(C(=O)NCCO)cc23)cc1C | 23.5
COC(=O)C1=C(c2ccc(OC)c(OC)c2)C[C@@H]2CC[C@H]1N2C(=O)N1CCc2cc(OC)c(OC)cc2C1 | -0.359
CC(=O)Nc1ccc(S(=O)(=O)NNC(=O)c2cc3c4ccccc4n(C)c3s2)cc1 | 8.01
Cc1sc2ncnc(N3CCC(C(=O)NNC(=O)COc4ccc(Br)cc4)CC3)c2c1C | -68.5
COC(=O)c1ccc(CN2CCC(Oc3cccc(C(=O)N4CCOCC4)c3)CC2)cc1 | -22.7
COC(=O)c1cc2occc2n1CC(=O)Nc1cc(OC)cc(OC)c1 | -10.6
Cc1ccc2nc(CCc3nc4ccc(C)cc4[nH]3)[nH]c2c1.Cl | -33.4
C=C(C)COc1ccc(-c2ncnc(C(F)(F)F)c2-c2ccccc2)c(O)c1 | 8.71
N#CCCC(CCC#N)C1=NCCc2ccccc21 | 27.8
O=C(Cc1cccc(F)c1F)NC1CCCN(Cc2ccc(Cl)cc2)C1 (centres unmarked) | -21.7
